Measured values published in the supplement of paper PMC10126150.
Sequences with one replicate were seen in a single cluster, so their values are uncertain.

The sequences below were run on ATP (assay: switch fluorescence ratio, 500 uM ATP over buffer (Cy3 cluster intensity, sum of 5 cycles each) (fold (ratio)); higher = stronger signal-on switching upon ATP binding; sequences stand for … in TCGTCGGCAGCGTCAGATGTGTATAAGAGACAGTTTTTTTTTTTTTTTTTTTTTTTTT…TC). Conditions: aptamer strand: ATP DNA aptamer (quencher-CACCTGGGGGAGTATTGCGGAGGAAGG + anchor), 100 nM annealed; ATP concentration: 500 uM; one replicate.
Procedure, shortened: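 The fluorescence ratio divides summed target-cycle Cy3 intensity by summed buffer-cycle Cy3 intensity for each cluster and is averaged per switch-domain sequence. Cy3-labelled switching-strand clusters on a modified Illumina MiSeq flow-cell were annealed to 100 nM quencher-labelled ATP aptamer, then imaged in selection buffer and again after 15 min with 500 uM ATP at 22 °C. Five such cycles were run, with NaOH stripping and re-annealing between them, and clusters outside 100-1000 RFU were excluded.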
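Further: ATP exposure 15 min at 22 °C before imaging.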

**Q.** For TGGAAACTTA, which switch fluorescence ratio is on record?
**A.** 0.971

**Q.** For TGGAAAGCGA, which switch fluorescence ratio is on record?
**A.** 1.03

**Q.** Which switch fluorescence ratio does the source give for TGGAAAGGAT here?
**A.** 0.968

**Q.** How did the switch fluorescence ratio turn out when TGGAAATTAT was run?
**A.** 1.09

**Q.** TGGAACATTA was tested. Which switch fluorescence ratio did it give?
**A.** 1.07

**Q.** TGGAACCTGG was tested. Which switch fluorescence ratio did it give?
**A.** 1

**Q.** TGGAACTCAT was tested. Which switch fluorescence ratio did it give?
**A.** 1.01

**Q.** Which switch fluorescence ratio does the source give for TGGAACTCGA here?
**A.** 1.01

**Q.** How did the switch fluorescence ratio turn out when TGGAAGCGGT was run?
**A.** 0.981

**Q.** TGGAAGTCAT was tested. Which switch fluorescence ratio did it give?
**A.** 1

**Q.** With TGGAATCAAC as the sequence, how does the switch fluorescence ratio read?
**A.** 1.01

**Q.** How did the switch fluorescence ratio turn out when TGGAATTAAA was run?
**A.** 1.02

**Q.** Which switch fluorescence ratio does the source give for TGGACACCCC here?
**A.** 1.13

**Q.** Which switch fluorescence ratio does the source give for TGGACAGCTT here?
**A.** 1.01

**Q.** For TGGACATAGA, which switch fluorescence ratio is on record?
**A.** 1.01

**Q.** With TGGACGATCT as the sequence, how does the switch fluorescence ratio read?
**A.** 1.09

**Q.** Which switch fluorescence ratio does the source give for TGGACGGGGT here?
**A.** 1.01

**Q.** With TGGACTCGTC as the sequence, how does the switch fluorescence ratio read?
**A.** 1.02

**Q.** How did the switch fluorescence ratio turn out when TGGACTGATC was run?
**A.** 0.988

**Q.** Which switch fluorescence ratio does the source give for TGGACTGGCG here?
**A.** 1.07

**Q.** Which switch fluorescence ratio does the source give for TGGACTGGGA here?
**A.** 0.971

**Q.** TGGAGAGGTT was tested. Which switch fluorescence ratio did it give?
**A.** 1.03

**Q.** Which switch fluorescence ratio does the source give for TGGAGATTGC here?
**A.** 0.986

**Q.** With TGGAGGCGGG as the sequence, how does the switch fluorescence ratio read?
**A.** 1.05

**Q.** With TGGAGGGTCA as the sequence, how does the switch fluorescence ratio read?
**A.** 0.998

**Q.** How did the switch fluorescence ratio turn out when TGGAGGTATG was run?
**A.** 1

**Q.** With TGGAGTGTTA as the sequence, how does the switch fluorescence ratio read?
**A.** 1.01

**Q.** How did the switch fluorescence ratio turn out when TGGAGTTATG was run?
**A.** 1.01

**Q.** For TGGATAACGT, which switch fluorescence ratio is on record?
**A.** 0.953

**Q.** TGGATATCGT was tested. Which switch fluorescence ratio did it give?
**A.** 0.99

**Q.** For TGGATCACTC, which switch fluorescence ratio is on record?
**A.** 0.991

**Q.** With TGGATCAGAT as the sequence, how does the switch fluorescence ratio read?
**A.** 0.994

**Q.** Which switch fluorescence ratio does the source give for TGGATCGCAC here?
**A.** 2.83

**Q.** Which switch fluorescence ratio does the source give for TGGATCGTCA here?
**A.** 0.998

**Q.** With TGGATCTACT as the sequence, how does the switch fluorescence ratio read?
**A.** 1.03

**Q.** Which switch fluorescence ratio does the source give for TGGATGACTG here?
**A.** 1.53

**Q.** How did the switch fluorescence ratio turn out when TGGATGCCTA was run?
**A.** 1.07

**Q.** TGGATGCGAG was tested. Which switch fluorescence ratio did it give?
**A.** 0.984

**Q.** For TGGATGGAGT, which switch fluorescence ratio is on record?
**A.** 0.996

**Q.** TGGATGGTTT was tested. Which switch fluorescence ratio did it give?
**A.** 1.01

**Q.** With TGGATTAGAA as the sequence, how does the switch fluorescence ratio read?
**A.** 1.02

**Q.** For TGGATTCCCG, which switch fluorescence ratio is on record?
**A.** 1.02

**Q.** TGGATTGTAG was tested. Which switch fluorescence ratio did it give?
**A.** 1.02

**Q.** Which switch fluorescence ratio does the source give for TGGATTTAAG here?
**A.** 0.993

**Q.** How did the switch fluorescence ratio turn out when TGGCAAATGC was run?
**A.** 1.26

**Q.** Which switch fluorescence ratio does the source give for TGGCACAGCT here?
**A.** 1.02

**Q.** How did the switch fluorescence ratio turn out when TGGCAGGGGC was run?
**A.** 1.04

**Q.** Which switch fluorescence ratio does the source give for TGGCATCGAG here?
**A.** 1

**Q.** TGGCATCTGC was tested. Which switch fluorescence ratio did it give?
**A.** 1

**Q.** Which switch fluorescence ratio does the source give for TGGCATTTGC here?
**A.** 1.04

**Q.** For TGGCCAAGGG, which switch fluorescence ratio is on record?
**A.** 0.991

**Q.** For TGGCCATATT, which switch fluorescence ratio is on record?
**A.** 1.04

**Q.** TGGCCCGGTT was tested. Which switch fluorescence ratio did it give?
**A.** 0.966

**Q.** Which switch fluorescence ratio does the source give for TGGCCGAAGG here?
**A.** 1.2

**Q.** For TGGCCGACTA, which switch fluorescence ratio is on record?
**A.** 0.982

**Q.** For TGGCCGGAGC, which switch fluorescence ratio is on record?
**A.** 1.1

**Q.** Which switch fluorescence ratio does the source give for TGGCCGTGCG here?
**A.** 1

**Q.** Which switch fluorescence ratio does the source give for TGGCCTCCCA here?
**A.** 1.03

**Q.** How did the switch fluorescence ratio turn out when TGGCGAAAGC was run?
**A.** 1.03

**Q.** With TGGCGAAT as the sequence, how does the switch fluorescence ratio read?
**A.** 1.03

**Q.** TGGCGCGGAG was tested. Which switch fluorescence ratio did it give?
**A.** 1.01

**Q.** TGGCGCTTTC was tested. Which switch fluorescence ratio did it give?
**A.** 1.07

**Q.** Which switch fluorescence ratio does the source give for TGGCGGCAAT here?
**A.** 2.28

**Q.** How did the switch fluorescence ratio turn out when TGGCGGGGAT was run?
**A.** 1.04

**Q.** For TGGCGTTCAG, which switch fluorescence ratio is on record?
**A.** 0.999

**Q.** Which switch fluorescence ratio does the source give for TGGCTACCCC here?
**A.** 2.12

**Q.** For TGGCTAGACG, which switch fluorescence ratio is on record?
**A.** 0.915

**Q.** With TGGCTAGGCT as the sequence, how does the switch fluorescence ratio read?
**A.** 0.996

**Q.** TGGCTAGGGA was tested. Which switch fluorescence ratio did it give?
**A.** 0.97

**Q.** How did the switch fluorescence ratio turn out when TGGCTAGGTT was run?
**A.** 0.978

**Q.** With TGGCTCAAAG as the sequence, how does the switch fluorescence ratio read?
**A.** 1.01

**Q.** With TGGCTCACTT as the sequence, how does the switch fluorescence ratio read?
**A.** 1.04

**Q.** With TGGCTGACG as the sequence, how does the switch fluorescence ratio read?
**A.** 1.08

**Q.** How did the switch fluorescence ratio turn out when TGGCTGAGGT was run?
**A.** 1.09

**Q.** How did the switch fluorescence ratio turn out when TGGCTGGAAA was run?
**A.** 1.02

**Q.** Which switch fluorescence ratio does the source give for TGGGAAACAA here?
**A.** 0.994

**Q.** Which switch fluorescence ratio does the source give for TGGGAAACAT here?
**A.** 1.08

**Q.** How did the switch fluorescence ratio turn out when TGGGAATCGT was run?
**A.** 1

**Q.** TGGGACTGCC was tested. Which switch fluorescence ratio did it give?
**A.** 1.15

**Q.** Which switch fluorescence ratio does the source give for TGGGAGAACT here?
**A.** 1.02

**Q.** Which switch fluorescence ratio does the source give for TGGGAGAGAT here?
**A.** 1.04

**Q.** How did the switch fluorescence ratio turn out when TGGGAGGCCC was run?
**A.** 1.06

**Q.** For TGGGATAGCG, which switch fluorescence ratio is on record?
**A.** 0.998

**Q.** With TGGGATTTAT as the sequence, how does the switch fluorescence ratio read?
**A.** 0.954

**Q.** TGGGCAAAAG was tested. Which switch fluorescence ratio did it give?
**A.** 1.27

**Q.** TGGGCAAGG was tested. Which switch fluorescence ratio did it give?
**A.** 0.997

**Q.** TGGGCACG was tested. Which switch fluorescence ratio did it give?
**A.** 1.04

**Q.** With TGGGCACGC as the sequence, how does the switch fluorescence ratio read?
**A.** 1.02

**Q.** TGGGCAGGTT was tested. Which switch fluorescence ratio did it give?
**A.** 0.996

**Q.** TGGGCCAAAT was tested. Which switch fluorescence ratio did it give?
**A.** 1.07

**Q.** For TGGGCCAAGA, which switch fluorescence ratio is on record?
**A.** 0.976

**Q.** For TGGGCCTGTT, which switch fluorescence ratio is on record?
**A.** 0.896

**Q.** How did the switch fluorescence ratio turn out when TGGGCGCAGC was run?
**A.** 0.981

**Q.** For TGGGCTTGGT, which switch fluorescence ratio is on record?
**A.** 0.983

**Q.** Which switch fluorescence ratio does the source give for TGGGGAATTA here?
**A.** 0.999

**Q.** With TGGGGACCAC as the sequence, how does the switch fluorescence ratio read?
**A.** 1.03

**Q.** TGGGGATTAT was tested. Which switch fluorescence ratio did it give?
**A.** 1.04

**Q.** With TGGGGCTGCG as the sequence, how does the switch fluorescence ratio read?
**A.** 1.05

**Q.** TGGGGGATAG was tested. Which switch fluorescence ratio did it give?
**A.** 0.979

**Q.** Which switch fluorescence ratio does the source give for TGGGGGCAAT here?
**A.** 0.999

**Q.** TGGGGTCGAA was tested. Which switch fluorescence ratio did it give?
**A.** 0.941
